The name of at least one read-out is uncertain.
These compounds were tested on HCT15 cells. Settings: ratio of IC50 without Verapamil to IC50 with Verapamil.
Format: cell-based, human
Description: To test the ability of the disclosed tubulysin payloads to kill human cell lines, an in vitro cytotoxicity assay was performed. In vitro cytotoxicity of the disclosed payloads, as well as reference compounds, were evaluated using the CellTiter-Glo Assay Kit (Promega, Cat #G7573), in which the quantity of ATP present is used to determine the number of viable cells in culture. For the assay, C4-2, HEK293, or T47D cells were seeded at 4000 cells/well on Nunclon white 96-well plates in complete growth medium (DME high glucose:Ham's F12 at 4:1, 10% FBS, 100 units/ml Penicillin, 100 ug/ml streptomycin, 53 ug/ml glutatmine, 10 ug/ml insulin, 220 ng/ml biotin, 12.5 pg/ml T3, 12.5 ug/ml Adenine, 4 ug/ml transferrin for C42 cells; DME high glucose, 10% FBS, 100 units/ml Penicillin, 100 ug/ml streptomycin, 53 ug/ml glutatmine for HEK293; RPMI, 10% FBS, 100 units/ml Penicillin, 100 ug/ml streptomycin, 53 ug/ml glutatmine, 10 ug/ml insulin, 10 mM HEPEs, 200 nM Sodium Pyruvate for T47D cells) and grown overnight at 37° C. in 5% CO2. For cell viability curves, 1:3 serially diluted payloads were added to the cells at final concentrations ranging from 100 nM to […], including a no treatment control group, and were then incubated for 5 days. After the 5-day incubation, cells were incubated at room temperature with 100 μL of CellTiter-Glo reagents for 10 minutes. Relative luminescence units (RLU) were determined on a Victor plate reader (PerkinElmer). The IC50 values were determined from a four-parameter logistic equation over a 10-point response curve (GraphPad Prism). All IC50 values are expressed in molar (M) concentration. The percent cell killing (% kill) at the maximum concentration tested was estimated from the following formula (100−% viable cells). Averages±standard deviation (SD) are included where replicate experiments were performed.
In vitro cytotoxicity of the disclosed payloads as well as reference compounds were evaluated similarly as described above except using 1000 HCT15 cells, a colorectal carcinoma cell line, in growth medium (RPMI, 10% FBS, 100 units/ml Penicillin, 100 ug/ml streptomycin, 53 ug/ml glutatmine) with or without 5 ug/mL of Verapamil.
`CCCCCCN(C(=O)[C@@H](NC(=O)[C@H]1CCCCN1C)[C@@H](C)CC)[C@H](C[C@@H](OC(C)=O)c1nc(C(=O)N[C@@H](Cc2ccc(N)cc2)CC(C)(C)C(=O)O)cs1)C(C)C` [IVq, (S)-4-(2-((1R,3R)-1-Acetoxy-3-((2S,3S)—N-hexyl-3-methyl-2-((R)-1-methylpiperidine-2-carboxamido)pentanamido)-4-methylpentyl)thiazole-4-carboxamido)-5-(4-aminophenyl)-2,2-dimethylpentanoic acid] was tested, and the “HCT15 IC50/HCT-15 + Verapamil IC50” value was 1.8 ± 0.6.
For `C#CCCCON(C(=O)[C@@H](NC(=O)[C@H]1CCCCN1C)[C@@H](C)CC)[C@H](C[C@@H](OC(C)=O)c1nc(C(=O)N[C@@H](Cc2ccc(N)cc2)C[C@H](C)C(=O)O)cs1)C(C)C` [Vh, (2S,4R)-4-({2-[(1R,3R)-1-(Acetyloxy)-4-methyl-3-[(2S,3S)-3-methyl-2-{[(2R)-1-methylpiperidin-2-yl]formamido}-N-(pent-4-yn-1-yloxy)pentanamido]pentyl]-1,3-thiazol-4-yl}formamido)-5-(4-aminophenyl)-2-methylpentanoic acid], the “HCT15 IC50/HCT-15 + Verapamil IC50” value was 2.5.
In the case of `[2H]c1cc(C[C@@H](CC(C)(C)C(=O)O)NC(=O)c2csc([C@@H](C[C@H](C(C)C)N(CCCCCC)C(=O)[C@@H](NC(=O)[C@H]3CCCCN3C)[C@@H](C)CC)OC(C)=O)n2)cc([2H])c1N` [IVs, (S)-4-(2-((1R,3R)-1-Acetoxy-3-((2S,3S)—N-hexyl-3-methyl-2-((R)-1-methylpiperidine-2-carboxamido)pentanamido)-4-methylpentyl)thiazole-4-carboxamido)-5-(4-aminophenyl-3,5-d2)-2,2-dimethylpentanoic acid], the “HCT15 IC50/HCT-15 + Verapamil IC50” value is reported as 2.4.
In the case of `CC[C@H](C)[C@H](NC(=O)[C@H]1CCCCN1C)C(=O)N(OCCCO)[C@H](C[C@@H](OC(C)=O)c1nc(C(=O)N[C@@H](Cc2ccc(O)cc2)C[C@H](C)C(=O)O)cs1)C(C)C` [Vk, (2S,4R)-4-(2-((1R,3R)-1-Acetoxy-3-((2S,3S)—N-(3-hydroxypropoxy)-3-methyl-2-((R)-1-methylpiperidine-2-carboxamido)pentanamido)-4-methylpentyl)thiazole-4-carboxamido)-5-(4-hydroxyphenyl)-2-methylpentanoic acid], the “HCT15 IC50/HCT-15 + Verapamil IC50” value is reported as over 2.3.
`C#CCCCCN(C(=O)[C@@H](NC(=O)[C@H]1CCCCN1C)[C@@H](C)CC)[C@H](C[C@@H](OC(C)=O)c1nc(C(=O)N[C@@H](Cc2ccc(F)cc2)CC(C)(C)C(=O)O)cs1)C(C)C` [IVc, (4S)-4-({2-[(1R,3R)-1-(Acetyloxy)-3-[(2S,3S)—N-(hex-5-yn-1-yl)-3-methyl-2-{[(2R)-1-methylpiperidin-2-yl]formamido}pentanamido]-4-methylpentyl]-1,3-thiazol-4-yl}formamido)-5-(4-fluorophenyl)-2,2-dimethylpentanoic acid] was tested, and the “HCT15 IC50/HCT-15 + Verapamil IC50” value was 2.7.
`C#CCCCON(C(=O)[C@@H](NC(=O)[C@H]1CCCCN1C)[C@@H](C)CC)[C@H](C[C@@H](OC(C)=O)c1nc(C(=O)N[C@@H](Cc2ccc(O)cc2)C[C@H](C)C(=O)O)cs1)C(C)C` [Vg, (2S,4R)-4-({2-[(1R,3R)-1-(Acetyloxy)-4-methyl-3-[(2S,3S)-3-methyl-2-{[(2R)-1-methylpiperidin-2-yl]formamido}-N-(pent-4-yn-1-yloxy)pentanamido]pentyl]-1,3-thiazol-4-yl}formamido)-5-(4-hydroxyphenyl)-2-methylpentanoic acid] was tested, and the “HCT15 IC50/HCT-15 + Verapamil IC50” value was 2.2.
In the case of `CCCCCON(C(=O)[C@@H](NC(=O)[C@H]1CCCCN1C)[C@@H](C)CC)[C@H](C[C@@H](OC(=O)NC)c1nc(C(=O)N[C@@H](Cc2ccc(N)cc2)CC(C)(C)C(=O)O)cs1)C(C)C` [VIh, (S)-5-(4-Aminophenyl)-4-(2-((5R,7R)-7-isopropyl-8-((2S,3S)-3-methyl-2-((R)-1-methylpiperidine-2-carboxamido)pentanoyl)-3-oxo-4,9-dioxa-2,8-diazatetradecan-5-yl)thiazole-4-carboxamido)-2,2-dimethylpentanoic acid], the “HCT15 IC50/HCT-15 + Verapamil IC50” value is reported as 3.7.
With `C#CCCCCN(C(=O)[C@@H](NC(=O)[C@H]1CCCCN1C)[C@@H](C)CC)[C@H](C[C@@H](OC(C)=O)c1nc(C(=O)N[C@@H](Cc2ccc(O)cc2)C[C@H](C)C(=O)O)cs1)C(C)C` [IVf, (2S,4R)-4-({2-[(1R,3R)-1-(Acetyloxy)-3-[(2S,3S)—N-(hex-5-yn-1-yl)-3-methyl-2-{[(2R)-1-methylpiperidin-2-yl]formamido}pentanamido]-4-methylpentyl]-1,3-thiazol-4-yl}formamido)-5-(4-hydroxyphenyl)-2-methylpentanoic acid] the “HCT15 IC50/HCT-15 + Verapamil IC50” value was 0.8.
In the case of `C#CCCCON(C(=O)[C@@H](NC(=O)[C@H]1CCCCN1C)[C@@H](C)CC)[C@H](C[C@@H](OC(C)=O)c1nc(C(=O)N[C@@H](Cc2ccc(N)cc2)CC(C)(C)C(=O)O)cs1)C(C)C` [Ve, (4S)-4-({2-[(1R,3R)-1-(Acetyloxy)-4-methyl-3-[(2S,3S)-3-methyl-2-{[(2R)-1-methylpiperidin-2-yl]formamido}-N-(pent-4-yn-1-yloxy)pentanamido]pentyl]-1,3-thiazol-4-yl}formamido)-5-(4-aminophenyl)-2,2-dimethylpentanoic acid], the “HCT15 IC50/HCT-15 + Verapamil IC50” value is reported as 5.6 ± 2.7.
In the case of `C#CCCCON(C(=O)[C@@H](NC(=O)[C@H]1CCCCN1C)[C@@H](C)CC)[C@H](C[C@@H](OC(C)=O)c1nc(C(=O)N[C@@H](Cc2ccc(F)cc2)C[C@H](C)C(=O)O)cs1)C(C)C` [Vf, (2S,4R)-4-({2-[(1R,3R)-1-(Acetyloxy)-4-methyl-3-[(2S,3S)-3-methyl-2-{[(2R)-1-methylpiperidin-2-yl]formamido}-N-(pent-4-yn-1-yloxy)pentanamido]pentyl]-1,3-thiazol-4-yl}formamido)-5-(4-fluorophenyl)-2-methylpentanoic acid], the “HCT15 IC50/HCT-15 + Verapamil IC50” value is reported as 9.0.
For `C#CCCCCN(C(=O)[C@@H](NC(=O)[C@H]1CCCCN1C)[C@@H](C)CC)[C@H](C[C@@H](OC(C)=O)c1nc(C(=O)N[C@@H](Cc2ccc(F)cc2)C[C@H](C)C(=O)O)cs1)C(C)C` [IVe, (2S,4R)-4-({2-[(1R,3R)-1-(Acetyloxy)-3-[(2S,3S)—N-(hex-5-yn-1-yl)-3-methyl-2-{[(2R)-1-methylpiperidin-2-yl]formamido}pentanamido]-4-methylpentyl]-1,3-thiazol-4-yl}formamido)-5-(4-fluorophenyl)-2-methylpentanoic acid], the “HCT15 IC50/HCT-15 + Verapamil IC50” value was 3.0.
For `C#CCCCON(C(=O)[C@@H](NC(=O)[C@H]1CCCCN1C)[C@@H](C)CC)[C@H](C[C@@H](OC(C)=O)c1nc(C(=O)N[C@@H](Cc2ccccc2)CC(C)(C)C(=O)O)cs1)C(C)C` [Vc, (4S)-4-({2-[(1R,3R)-1-(Acetyloxy)-4-methyl-3-[(2S,3S)-3-methyl-2-{[(2R)-1-methylpiperidin-2-yl]formamido}-N-(pent-4-yn-1-yloxy)pentanamido]pentyl]-1,3-thiazol-4-yl}formamido)-2,2-dimethyl-5-phenylpentanoic acid], the “HCT15 IC50/HCT-15 + Verapamil IC50” value was 3.3.
With `CCCCCCN(C(=O)[C@@H](NC(=O)[C@H]1CCCCN1C)[C@@H](C)CC)[C@H](C[C@@H](OC(C)=O)c1nc(C(=O)N[C@@H](Cc2ccc(O)c(N)c2)CC(C)(C)C(=O)O)cs1)C(C)C` [IVw, (S)-4-(2-((1R,3R)-1-Acetoxy-3-((2S,3S)—N-hexyl-3-methyl-2-((R)-1-methylpiperidine-2-carboxamido)pentanamido)-4-methylpentyl)thiazole-4-carboxamido)-5-(3-amino-4-hydroxyphenyl)-2,2-dimethylpentanoic acid] the “HCT15 IC50/HCT-15 + Verapamil IC50” value was 2.2.
With `CCCCCCON(C(=O)[C@@H](NC(=O)[C@H]1CCCCN1C)[C@@H](C)CC)[C@H](C[C@@H](OC(=O)NCC)c1nc(C(=O)N[C@@H](Cc2ccc(O)cc2)C[C@H](C)C(=O)O)cs1)C(C)C` [VIb, (2S,4R)-5-(4-hydroxyphenyl)-4-(2-((6R,8R)-8-isopropyl-9-((2S,3S)-3-methyl-2-((R)-1-methylpiperidine-2-carboxamido)pentanoyl)-4-oxo-5,10-dioxa-3,9-diazahexadecan-6-yl)thiazole-4-carboxamido)-2-methylpentanoic acid] the “HCT15 IC50/HCT-15 + Verapamil IC50” value was over 17.3.
For `CCCCCCON(C(=O)[C@@H](NC(=O)[C@H]1CCCCN1C)[C@@H](C)CC)[C@H](C[C@@H](OC(=O)NCCCC)c1nc(C(=O)N[C@@H](Cc2ccc(O)cc2)C[C@H](C)C(=O)O)cs1)C(C)C` [VId, (2S,4R)-5-(4-Hydroxyphenyl)-4-(2-((8R,10R)-10-isopropyl-11-((2S,3S)-3-methyl-2-((R)-1-methylpiperidine-2-carboxamido)pentanoyl)-6-oxo-7,12-dioxa-5,11-diazaoctadecan-8-yl)thiazole-4-carboxamido)-2-methylpentanoic acid], the “HCT15 IC50/HCT-15 + Verapamil IC50” value was over 62.2.

From patent publication US12144864B2, “Tubulysins and protein-tubulysin conjugates” (Regeneron Pharmaceuticals, Inc., priority 2018, dated 2024)
